According to patent US9745340B2, “Method for the separation of proteins containing an albumin-binding” (AFFIBODY AB, priority 2012, dated 2017):

Tests used:
PEP08519 [1] = test: Chromatography study of elution pH, linear pH gradient; type: binding; settings: linear gradient pH 5.5 to pH 2.3, 0.1 M sodium citrate, 0.9% NaCl
Experimental: His6-(Z06677)2-Cys was immobilized on activated EAH-Sepharose 4B (GE Healthcare, cat. no. 17-0569-01). Activation and immobilization was carried out according to the manufacturer's instructions, and the degree of coupling was determined as described in Example 3. Activated EAH Sepharose contains an iodoacetyl group that enables site-directed coupling via the C-terminal cysteine of the affinity ligand. 0.43 ml of the resin was packed in a Tricorn 5/50 column (GE Healthcare). As a reference, 0.47 ml HSA Sepharose (see Example 3) was packed in the same kind of column.
The elution experiment was performed using an ÄKTAexplorer 10 chromatography system (GE Healthcare). The two columns were attached to the system and equilibrated with PBS. 2 ml of a sample containing 1 mg PEP08519 (comprising the albumin binding domain PP013 (SEQ ID NO:160) fused at its N-terminus to a Taq polymerase binding variant of protein Z) was loaded on each column followed by wash with PBS and 0.1 M sodium citrate, 0.9% NaCl, pH 5.5. Bound protein was eluted by a linear pH gradient ranging from pH 5.5 to pH 2.3 (using 0.1 M sodium citrate, 0.9% NaCl, pH 5.5, and 0.1 M sodium citrate, 0.9% NaCl, pH 2.3) over 16 column volumes (CV). The pH was monitored by the built-in pH meter of the ÄKTAexplorer system.

PEP08515 = test: Column study II: spin columns, Z variant-coupled resins, bacterial extract; type: binding; settings: 0.1 M sodium citrate pH 3.0 then 0.5 M HAc pH 2.5
Experimental: A second column study was performed to further test binding, wash and elution properties of four ABD binding Z variant-coupled resins from column study I. The ligands of these resins were His6-(Z06608)2-Cys, His6-(Z06638)2-Cys, His6-(Z06677)2-Cys and His6-(Z06650)2-Cys. An additional column packed with HSA Sepharose (human serum albumin coupled, according to the instructions by the manufacturer, via free amines to CNBr-activated Sepharose 4 Fast Flow, GE Healthcare, cat. no. 17-0981) was included as a reference. A clarified bacterial extract, prepared from an E. coli pellet by sonication and centrifugation, was used as sample in this experiment. 0.17 ml of the bacterial extract, containing approximately 0.5 mg of PEP08515 (comprising the albumin binding domain PP013 (SEQ ID NO:160) fused at its N-terminus to a PDGFR-β (Platelet Derived Growth Factor Receptor beta) binding variant of protein Z) was transferred to spin columns packed with each respective ABD binding Z variant-coupled resin or HSA Sepharose. Flow-through was collected by centrifugation and reapplied twice to the columns. Different solutions, specified in Table 2, were added to remove bacterial host proteins and to subsequently elute bound PEP08515 molecules. Wash and elution fractions were collected by centrifugation and analyzed in a spectrophotometer by measuring the absorbance at 280 nm, and by SDS-PAGE.

[2] = Melting point (Tm) by circular dichroism, variable temperature measurement; type: physicochemical; settings: 0.5 mg/ml in PBS, CD 220 nm, 20-90 °C
Experimental: Circular dichroism (CD) analysis was carried out to determine the melting point (Tm) of His6-(Z06677)2-Cys. The purified sample was diluted to 0.5 mg/ml in PBS. A variable temperature measurement (VTM) was performed, in which the absorbance at 220 nm was monitored during heating of the sample from 20° C. to 90° C., with a temperature slope of 5° C./min. Tm was determined from the midpoint of the transition in the CD signal vs. temperature plot. The CD measurement was performed on a Jasco J-810 spectropolarimeter (Jasco Scandinavia AB) using a cell with an optical path length of 1 mm.

PEP08519 [3] = test: Alkali resistance: dynamic binding capacity after NaOH incubation; type: physicochemical; settings: for Dynamic binding capacity after alkali incubation: 0.5 M NaOH for 2 h
Experimental: After the capacity runs, the columns were subjected to alkali treatment by applying 5 CV of 0.2 M NaOH at a flow-rate of 1 ml/min, followed by an incubation period without flow. The total incubation time in alkali was 25 min. Neutralization of the columns was performed by washing with 5 CV of PBS at 1 ml/min, followed by a new capacity measurement as described above.
Two more alkali treatments followed by capacity measurements were carried out as above, but with the NaOH concentration increased to 0.5 M and, in the last alkali treatment, the incubation time was extended to 2 h.
The four His6-(Z06677)2-Cys-coupled resins were packed in Tricorn 5/50 columns. The dynamic binding capacity was tested, after which the resins were subjected to 0.5 M NaOH for 2 h, followed by a second dynamic binding capacity test. The capacity tests and alkali incubations were carried out as described in Example 4.

Dynamic binding capacity after alkali incubation (PEP08519 [3]; Activated EAH Sepharose): 1.44 mol sample/mol affinity ligand
Dynamic binding capacity after alkali incubation (PEP08519 [3]; CNBr-activated Sepharose 4 Fast Flow): 0.81 mol sample/mol affinity ligand
Dynamic binding capacity after alkali incubation (PEP08519 [3]; NHS-activated Sepharose 4 Fast Flow): 0.38 mol sample/mol affinity ligand
Dynamic binding capacity after alkali incubation (PEP08519 [3]; SulfoLink Coupling Resin): 1.44 mol sample/mol affinity ligand
B1: His6-(Z06677)2-Cys: dimeric Z06677 with N-terminal His6 tag and C-terminal Cys, MGSSHHHHHHLQ-[Z06677][Z06677]-VDC (protein)
chain: MGSSHHHHHHLQVDAKYAKELKVAFKEINTLPNLTHQQRIAFIIKLDDDPSQSSELLAEAKKLNDAQAPKVDAKYAKELKVAFKEINTLPNLTHQQRIAFIIKLDDDPSQSSELLAEAKKLNDAQAPKVDC
pH at peak maximum for the eluted peak (PEP08519 [1]): 3.3
elution of bound protein in column study II (PEP08515): released a majority of its bound protein at the higher pH range of elution
melting point (Tm) [2]: 54 °C
dynamic binding capacity after alkali incubations (PEP08519 [3]; EAH Sepharose, 0.2 M NaOH 25 min, 0.5 M NaOH 25 min, 0.5 M NaOH 2 h): maintained its original capacity after all incubations
